Test results as given in PubChem BioAssay AID651820 (National Center for Advancing Translational Sciences (NCATS), 2012).
Hit rate of the full screen: of about 340,000 compounds, about 12,000 (3.5%) were called active. Inconclusive means that the source gave no clear call. Such entries were picked first, then a sample of the others. Calls come from the whole dose curve; as a rule, active = well fitted inhibition curve with a large enough effect; inconclusive = small, poorly fitted or top-dose-only effect, or another doubt; inactive = no such curve, though single readings can be large or run the other way. No potency is given beside an inconclusive call; the fits are too rough.

test: qHTS Assay for Inhibitors of Hepatitis C Virus (HCV); conditions: Huh7.5.1 HCVcc-Cre (HCVcc is cell-culture hepatitis C virus) infection, luciferase reporter, 44 h; activity change, negative = inhibition: at 41.8 µM (top of the series) unless noted
Method in brief: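 Seed cells (1,000/well) for 4 h; treat with compound and infect with HCVcc-Cre, moi about 0.5. Incubate 44 h, then detect luciferase activity.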
% is set by controls: 0 for no effect and ±100 for the full control effect; potency is the fitted concentration of half-maximal effect; tags give direction and shape of the fitted curve.

**Q.** With `CN(CCc1ccccc1)C(=O)c1cccc(NC(=O)Cc2cccc(NC(=O)C3CCCN(C(=O)C4CCCC4)C3)c2)c1` (centres undefined) as the molecule, how does the Potency read?
**A.** inconclusive [inhibitor, full curve]

**Q.** For `COc1cccc(-c2nc(-c3ccc(NC(=O)Cc4ccccc4OC)cc3)no2)c1`, which Potency is on record?
**A.** active: 6.31 µM

**Q.** With `N#Cc1cccc(C(c2nnnn2C2CCCC2)N2CCC(Cc3ccccc3)CC2)c1` (centres undefined) as the molecule, how does the Potency read?
**A.** inconclusive [inhibitor, partial curve, poor fit]

**Q.** With `Cc1c(C)n(Cc2ccccc2)c2ncnc(NCCO)c12` as the molecule, how does the “activity change, negative = inhibition” value read?
**A.** inactive: 8.5%

**Q.** With `CC(C)CC(=O)Nc1ccc(-c2cn3ccsc3n2)cc1` as the molecule, how does the Potency read?
**A.** inconclusive [inhibitor, partial curve]

**Q.** Which Potency does the source give for `CCN(Cc1nc2ccccc2c(=O)[nH]1)C(=O)c1cc(C2CC2)nn1-c1ccccc1` here?
**A.** inconclusive [inhibitor, single point]

**Q.** For `COc1ccc(-c2c(-c3cc(OC)cc(OC)c3)n(C)c3ccc(-c4ccc(OC)cc4F)cc23)cc1`, which Potency is on record?
**A.** inconclusive [inhibitor, partial curve]

**Q.** Which “activity change, negative = inhibition” value does the source give for `CC(=O)N1CCN(c2ccc(NC(=S)NC(=O)/C=C/c3ccccc3)cc2)CC1` here?
**A.** inactive: 22.6%

**Q.** With `CC(CCN1CCC(CN2C(=O)C(=O)NC[C@@H]2Cc2ccccc2)CC1)c1ccccc1` (some centres undefined) as the molecule, how does the “activity change, negative = inhibition” value read?
**A.** inactive: 8.79%

**Q.** With `COCCNC(=O)c1ccc2c(=O)n(Cc3ccco3)c(SCC(=O)Nc3ccc(OC)cc3OC)nc2c1` as the molecule, how does the Potency read?
**A.** inconclusive [inhibitor, partial curve]

**Q.** With `Cc1ccc2nc(-c3ccc(NC(=O)c4ccco4)cc3)[nH]c2c1` as the molecule, how does the Potency read?
**A.** inconclusive [inhibitor, single point]

**Q.** With `O=C(CSc1ncnc2c1oc1ccccc12)Nc1cccc(C(F)(F)F)c1` as the molecule, how does the Potency read?
**A.** inconclusive [inhibitor, single point]

**Q.** For `COc1ccc2c3n(nc2c1)CCN=C3c1cc(Cl)c(N)c(Cl)c1`, which Potency is on record?
**A.** inconclusive [inhibitor, single point]

**Q.** With `O=C(NC(=S)Nc1ccccc1)c1cc(-c2ccccc2)nc2ccccc12` as the molecule, how does the Potency read?
**A.** inconclusive [inhibitor, single point]

**Q.** For `CCN(CC)C(=O)CSc1nc2ncccc2[nH]1`, which “activity change, negative = inhibition” value is on record?
**A.** inactive: 34.9%

**Q.** For `Cc1cc(O)c(S(=O)(=O)c2ccccc2)c(C)c1NS(=O)(=O)c1ccccc1`, which Potency is on record?
**A.** inconclusive [inhibitor, single point]

**Q.** For `COc1ccc(-c2csc(N(Cc3ccco3)C(=O)c3cccs3)n2)cc1`, which Potency is on record?
**A.** inconclusive [inhibitor, single point]

**Q.** Which Potency does the source give for `O=C(Nc1cccc(S(=O)(=O)c2cccc(NC(=O)c3ccco3)c2)c1)c1ccco1` here?
**A.** active: 11.2 µM

**Q.** With `C#CCNC(=O)C1=C[C@H](C2CCCCC2)C[C@H](OCc2ccc(CO)cc2)O1` as the molecule, how does the “activity change, negative = inhibition” value read?
**A.** inactive: -25.5%

**Q.** With `O=C1C(C=NCc2ccccn2)=C(O)c2ccccc21` as the molecule, how does the “activity change, negative = inhibition” value read?
**A.** inactive: 2.05%

**Q.** With `CC1=C(C(=O)OCc2ccccc2)C(c2ccc(Cl)cc2)NC(=O)N1CCCCCC(=O)O` (centres undefined) as the molecule, how does the Potency read?
**A.** inconclusive [inhibitor, partial curve]

**Q.** For `O=C(O)CSc1nc2c(c(C(F)(F)F)n1)CCc1ccccc1-2`, which “activity change, negative = inhibition” value is on record?
**A.** inactive: -8.97%

**Q.** For `CCOC(=O)N1CCC(N(C(=O)Nc2ccc(CC)cc2)C(C)CC)CC1` (centres undefined), which “activity change, negative = inhibition” value is on record?
**A.** inactive: -6.73%

**Q.** Which Potency does the source give for `CCOC(=O)C1(Cc2ccc(OC)cc2)CCN(C(=O)c2sc(C)nc2C)CC1` here?
**A.** inconclusive [inhibitor, single point]

**Q.** For `CC1([N+](=O)[O-])COC2(CCCCC2)OC1`, which “activity change, negative = inhibition” value is on record?
**A.** inactive: 7.61%

**Q.** With `COc1ccccc1C(=O)Nc1cc(Cl)ccc1-n1cncn1` as the molecule, how does the Potency read?
**A.** inconclusive [inhibitor, single point]

**Q.** Which Potency does the source give for `CN1C(C(=O)NCc2ccc(OC(F)(F)F)cc2)CC2Cn3c(nc4cc5ccccc5cc43)C21` (centres undefined) here?
**A.** inconclusive [inhibitor, single point]

**Q.** Which Potency does the source give for `c1ccc2c(c1)CCc1c(-c3ccncc3)n[nH]c1-2` here?
**A.** inconclusive [inhibitor, single point]

**Q.** Which Potency does the source give for `Cc1ccc2nc(N/C(N)=N/S(=O)(=O)c3ccc([N+](=O)[O-])cc3)nc(C)c2c1` here?
**A.** inconclusive [inhibitor, partial curve]

**Q.** For `Cc1cccc(C)c1N1CCN(c2ccc3nnc(C(F)(F)F)n3n2)CC1`, which “activity change, negative = inhibition” value is on record?
**A.** inactive: -16.5%

**Q.** With `O=C(CN(Cc1ccccc1Cl)C(=O)c1csnn1)NCc1ccc2c(c1)OCO2` as the molecule, how does the “activity change, negative = inhibition” value read?
**A.** inactive: -3.61%

**Q.** For `O=C(Cc1ccc(S(=O)(=O)N2CCCCC2)s1)Nc1ccc(F)cc1F`, which Potency is on record?
**A.** inconclusive [inhibitor, single point]

**Q.** For `CCCN(CCC)S(=O)(=O)c1ccc(C(=O)Nc2nnc(-c3cccc(OC)c3)o2)cc1`, which Potency is on record?
**A.** inconclusive [inhibitor, partial curve]

**Q.** For `COc1cccc(C(=O)Nc2cc(C(=O)NCCc3ccccc3)ccc2Cl)c1`, which Potency is on record?
**A.** inconclusive [inhibitor, full curve]

**Q.** With `O=C(Nc1nnc(SCc2ccc(F)cc2)s1)c1ccccn1` as the molecule, how does the Potency read?
**A.** inconclusive [inhibitor, single point]

**Q.** Which Potency does the source give for `Cc1cccc(C(=O)c2c(N)sc3c2CCCC3)c1` here?
**A.** inconclusive [inhibitor, single point]

**Q.** For `CCC(=O)N1CCc2cc(OC)c(OC)cc2C1COc1ccc(C(=O)OC)cc1` (centres undefined), which Potency is on record?
**A.** inconclusive [inhibitor, partial curve]

**Q.** With `Cc1nn(Cc2ccccc2)c(C)c1C(=O)OCC(=O)c1cc(C)n(C2CC2)c1C` as the molecule, how does the Potency read?
**A.** inconclusive [inhibitor, full curve]

**Q.** For `Cc1csc(SCC(=O)Nc2cc(C(C)(C)C)nn2-c2ccccc2)n1`, which Potency is on record?
**A.** inconclusive [inhibitor, single point]

**Q.** Which Potency does the source give for `CCCc1ccc(NC(=O)C2CCN(c3cnccn3)CC2)cc1` here?
**A.** inconclusive [inhibitor, single point]

**Q.** Which “activity change, negative = inhibition” value does the source give for `COc1ccc(/C=N/NC(=O)CSc2ccccc2)cc1OC` here?
**A.** inactive: -0.722%

**Q.** For `O=C(O)CCN1c2ccccc2Sc2ccccc21`, which “activity change, negative = inhibition” value is on record?
**A.** inactive: 5.05%

**Q.** Which Potency does the source give for `CCCOc1ccc(C(=O)C(CN2CCCC2)c2ccccc2)cc1` (centres undefined) here?
**A.** inconclusive [inhibitor, partial curve]

**Q.** With `CCOC(=O)c1c(CSc2ccsc2)n(C)c2cc(Br)c(O)c(CN(C)C)c12` as the molecule, how does the Potency read?
**A.** inconclusive [inhibitor, single point]
